The source of these data is PMC12136788.

The chains are these.
T1: UNK ZnF1-3 (human, UniProt Q9C0B0 31-174)
T1 sequence: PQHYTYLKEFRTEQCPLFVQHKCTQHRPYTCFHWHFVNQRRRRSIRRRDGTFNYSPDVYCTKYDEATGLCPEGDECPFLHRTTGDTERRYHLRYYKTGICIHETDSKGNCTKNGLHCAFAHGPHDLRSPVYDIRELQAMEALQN

B1: chr7:45139798:45139799:-_ENSG00000136270_ENST00000258770|hu_hu|FALSE|FALSE (ssRNA)
RNA: GGGAGUUCUACAGUCCGACGAUCCAACACCAAAAUUAAAGGUUUAUUAUACACAAGAGGACGUUCUGUCCCUCAGAGUGGCUGGCCACCCUCCCCACUCUGGCCAAGGUCCUGCACAGAGGUUUGUCCUCAAGGGUGACCCUUCAACAGAGGAUUGAGCAUCA
B2: 75562132_75563920_2274_CDS_ENSG00000119638_ENST00000238616|human|control|control (ssRNA)
RNA: GGGAGUUCUACAGUCCGACGAUCCUCAACGAUGAGAAUGGUAUGCCAUCCACGGCAAGACAGGUCCGGGACAUGAUGCAGAGAUCCAAAAAUAGGCCGAGGCCAUGAGGUACAGAUAUCAGAGCCAUGUGGUCUCUCUGUGGGCAACAGAGGAUUGAGCAUCA
B3: chr1:46159212:46159213:+_ENSG00000159596_ENST00000372025|hu_mus|hu_hu_hu_mus_True|1_58 (ssRNA)
RNA: GGGAGUUCUACAGUCCGACGAUCUCUGAUCCCUCCCAAGAAAGCUAGGAAACCGGCUCCAUAAGCCAUCUGAGUGAAAGCUAAUAUGGGGAUAUAAGACUUUGUUAUUACCAUGAGAAGUGGGGGAGCAGUAAAGGGGAUUAGCAACAGAGGAUUGAGCAUCA
B4: chr15:52101961:52101962:+_ENSG00000128872_ENST00000249700|hu_mus|FALSE|FALSE (ssRNA)
RNA: GGGAGUUCUACAGUCCGACGAUCGAGUUAUUCAACCUCCAAAGGGAUUGUGACCCACAGGUUGAGAACCACUGACUUAGCGACAUAGAGAGAAGGGAAACAAGAAGGAUGCUUUGUCAUGAAAGGAGAGGAAAAGGAAGGACACAACAGAGGAUUGAGCAUCA
B5: chr1:95363388:95363389:-_ENSG00000117519_ENST00000538964|hu_mus|FALSE|FALSE (ssRNA)
RNA: GGGAGUUCUACAGUCCGACGAUCCCGAGGGUAGUCGUCUGGGUACUCGCCAUGAUAUUCAUCGGGGUAUUCUGCCUGAUAAUCGCUAUCACUGAUUUCCGACCCAUUGGUGCCCGUGCCCUGGCUUCCGUUGUGAAUGACAGGCAACAGAGGAUUGAGCAUCA
B6: chr9:115598534:115598535:+_ENSG00000148158_ENST00000374232|hu_hu|FALSE|FALSE (ssRNA)
RNA: GGGAGUUCUACAGUCCGACGAUCCAGCUUGUAGCCGCCAGUGACGUGCUUGACUGACUCGCCCAUUCUGGUCAGCAAUGCUAUCCCUUGCUUCUUGUAGGCGUUCAGGUCCUUAGCAGUAAGGAAAAUAUUAAAGUGUUCAUUCAACAGAGGAUUGAGCAUCA
B7: chr7:75932113:75932114:+_ENSG00000106211_ENST00000248553|hu_hu|hu_hu_hu_mus_False|18_38 (ssRNA)
RNA: GGGAGUUCUACAGUCCGACGAUCCUGCGACCACUCAUCGGGCAACCGGGGCACCCCGAAAGCUUGAUCGAAGAGGCGGCUGUGUGCAGGGUACCAGCGGAAGGGGUGUUCCCAGCUGCCCCGCAGGAGCAGCGAGAAGGGCACCAACAGAGGAUUGAGCAUCA
B8: chr2:202488911:202488912:-_ENSG00000155755_ENST00000286196|hu_mus|hu_hu_hu_mus_False|98_108 (ssRNA)
RNA: GGGAGUUCUACAGUCCGACGAUCAUUUAACAUUUUUCAUAAUAUUGCAGUAGCAUUUCAGCAUUAUGUAACAAAAGCUCAAUUGUAAAUACAUGUAUCUUAUAAAAAUACACUUAAAAACACGAGUGGGGAGCGCAGGCGCCACAACAGAGGAUUGAGCAUCA
B9: chr4:86222814:86222815:+_ENSMUSG00000070934_ENSMUST00000091064|mus_mus|motif|central (ssRNA)
RNA: GGGAGUUCUACAGUCCGACGAUCGAAUAUUAAAGACAAAUGAUGCAAAAAAAAAAAAAACACCGUAAUUCAGCAUUUUACGGAAGAGCAUUUGGCAUUAUUUCAACGCAUGAGGAGGCUGUGCUUGGGCCCAUCUACUCUUUCCAACAGAGGAUUGAGCAUCA
B10: 119848481_119848852_3695_CDS_ENSMUSG00000033902_ENSMUST00000066058|mouse|control|control (ssRNA)
RNA: GGGAGUUCUACAGUCCGACGAUCGCCUUUCAGCUGCUCACCAGACACCUGUGAUACCUGGUCAGGUCUGGACGUCAGGGCCAAGCCUGAGGAGGAUAGGGAUGGUUCCCUGAGUGGGGAGGUCUGCACUUGCAGAAGGAAUCGCAACAGAGGAUUGAGCAUCA
B11: 173384412_173384532_3865_3pUTR_ENSG00000113742_ENST00000334035|human|control|control (ssRNA)
RNA: GGGAGUUCUACAGUCCGACGAUCCAAAGCUAGAAUUUUAUUUAUAAUAAAGCAUGCAUUACUUGAUGAAGUUGGCACUUCAAACACUGACUAUGUCCCAUGCUAAAUUCGGAAACUGUAAUGUUAUUUUAGUUUAUAGGAAGACAACAGAGGAUUGAGCAUCA
B12: chr18:56819859:56819860:+_ENSG00000166562_ENST00000588875|hu_mus|hu_hu_hu_mus_True|68_68 (ssRNA)
RNA: GGGAGUUCUACAGUCCGACGAUCAACCUUGAUUACUCUGUGAACUAUCGGAAUGUCUCUUCCUUCAACUUUAAAAACAACUAUUUCACCAGCUCUGAUGGGGUCCUCCCGGAAAUUCGUGAGGAACAGCAGAUCUCCUCUGUGCAACAGAGGAUUGAGCAUCA
B13: chr2:42509997:42509998:+_ENSG00000143924_ENST00000318522|hu_mus|hu_hu_hu_mus_True|58_88 (ssRNA)
RNA: GGGAGUUCUACAGUCCGACGAUCUCGCUGAGUCCUCUCCUCAUAAUUAAAUAGUACUACCACUGAGGCGAUAAAAUAAACUAUUUUCCCUGUGGGAAGCAGGUAUACAUUCGCUCUACAGUCCUUUCCUCGAUAACCGUAUACCAACAGAGGAUUGAGCAUCA
B14: chr10:99542671:99542672:+_ENSMUSG00000019966_ENSMUST00000105283|mus_mus|FALSE|FALSE (ssRNA)
RNA: GGGAGUUCUACAGUCCGACGAUCACUAGUGUCAGAUGCCACCAUAAAGUCCUUAAAGGCAUCAAUGGAUCUAUUGAAAAUACUAAAGAAUUCUUCAGGAGUAAAGGAUCUAGUUUCUGGCCUCUUCGGAGAUUCUUUUAUAUUCAACAGAGGAUUGAGCAUCA
B15: 113158224_113159022_837_CDS_ENSMUSG00000010936_ENSMUST00000034190|mouse|control|control (ssRNA)
RNA: GGGAGUUCUACAGUCCGACGAUCUGGCAGGUAAUCCAGCAGGUUAAUGUCUGGCACCGACACCAGAACCAGGAUCCAGGAGAUGAUGAACUGUCGGGCGUAUUGGUUGUUGGAGUAAAUCCUCUCCCGCAAAAGGGGGAUGAACAACAGAGGAUUGAGCAUCA
B16: chr1:135197953:135197954:+_ENSMUSG00000041757_ENSMUST00000038295|mus_hu|FALSE|FALSE (ssRNA)
RNA: GGGAGUUCUACAGUCCGACGAUCGAGCCAAUCCCACCUGCCAGUCUGCAGGGGAGAAAGGGCAGGUUUGGGGUGCUUGAACUGUGAAGAUGGGAAAUACAGCCAAGGGUCACGUUUAAAAAACCUGCUAGAAGUGAAGAUCGGCAACAGAGGAUUGAGCAUCA
B17: 102186782_102191557_1493_CDS_ENSMUSG00000021182_ENSMUST00000068411|mouse|control|control (ssRNA)
RNA: GGGAGUUCUACAGUCCGACGAUCCUUCAGGAUGCGGCUGGAGGCGCACUCAUUCAGCUCAAAGACGAAGGAUUUCCUGGAGGCGUCGGACAAGUCUGCGUUCUUGGACAGCUGCUCCAGUUCCCAGCCAAGGUGGGCCGACUCCAACAGAGGAUUGAGCAUCA
B18: chr2:47387770:47387771:-_ENSG00000143933_ENST00000272298|hu_mus|hu_hu_hu_mus_True|8_28 (ssRNA)
RNA: GGGAGUUCUACAGUCCGACGAUCAAGGUUUAAGGACAAUGACAGUAAGAUAAGGGAAGAAAACAUGGAGGAAUGAAGUCCUAAUUACUAUACAUGCAUAUUUUUUGGACAGUAGGGGGGGGAACCUUACAGAUAAGAGUUACACAACAGAGGAUUGAGCAUCA
B19: chr18:35732044:35732045:+_ENSMUSG00000037236_ENSMUST00000166793|perfect_dup|motif|central (ssRNA)
RNA: GGGAGUUCUACAGUCCGACGAUCAAUUUGGGGCAAGUUCUCAGGAGUAAUCUUGUCCUCUGGAUAGCGACUCAGUUCAUCGGAGUCUCUAGCAGACAGACCAAAGCUGGCCAAAAUAUUACUGGCCUGGUCUGUAUCUCCACGCAACAGAGGAUUGAGCAUCA
B20: chrX:41029285:41029286:+_ENSG00000124486_ENST00000378308|hu_hu|motif|central (ssRNA)
RNA: GGGAGUUCUACAGUCCGACGAUCUGUAUGAGACCAUACCUCCAAGUCAUCAACCUGUCUGCCCUGGUUUGGAAAUCGAACGGCAAAAGAGAGGUGUUUACCGCGGAAUGCUCUCGACAUAGGGAGAAUUGUUCUUUCCUCAUGCAACAGAGGAUUGAGCAUCA
B21: chr8:95500983:95500984:-_ENSG00000164944_ENST00000437199|hu_hu|FALSE|FALSE (ssRNA)
RNA: GGGAGUUCUACAGUCCGACGAUCAAAAGGAUUUUUAUCGUGUAAAGGAGCGUACAUGACGACCUCUACCACUGCCUCCACUAACAAACUUUCCUCUUGAGCCUCCACUGCCGCUAUUUGCACUAGCCCAGGAAGGUCCAAGUCCAACAGAGGAUUGAGCAUCA
B22: chr4:144465060:144465061:+_ENSG00000153147_ENST00000283131|hu_mus|motif|central (ssRNA)
RNA: GGGAGUUCUACAGUCCGACGAUCAUAGUCUUCUCCUUCAAAGUUAUAAACACUGGACUCUGUGUCCAUCGUAAAGUUUCGGAGUGAACUUUCACCCAUCUUGGAGAGCUUUUCGUUCAUUUCUGCAGUCUUCUUUGCACCUCUCAACAGAGGAUUGAGCAUCA

Some of the results follow.

The experiment deals with T1, UNK ZnF1-3. The experiment in a line: nsRBNS (natural sequence RNA bind-n-seq); RBNS binding buffer (assumed for nsRBNS): 25 mM Tris pH 7.5, 150 mM KCl, 3 mM MgCl2, 0.01% Triton X-100, 500 ug/ml BSA, 20 U/ml SUPERase-In, 4 C; UNK is unkempt and MSI1 is Musashi-1; names of the RNAs are library labels; protein concentration not given here; high values mean tight binding.
In the case of B1, the binding signal worked out at 1.29 enrichment R.

As to B2, the binding signal was found to be 1.16 enrichment R.

Molecule B3 registered a binding signal of 1.6 enrichment R.

B4: the binding signal came to 2.63 enrichment R.

B5 returned a binding signal of 0.653 enrichment R.

On to B6, for which the binding signal turned out to be 0.743 enrichment R.

Molecule B7 showed a binding signal of 1.15 enrichment R.

The molecule B8 gave a binding signal of 0.768 enrichment R.

Molecule B9 registered a binding signal of 2.38 enrichment R.

B10 returned a binding signal of 0.985 enrichment R.

The molecule B11 showed a binding signal of 1.02 enrichment R.

B12 displayed a binding signal of 0.722 enrichment R.

In turn, B13 gave a binding signal of 1.51 enrichment R.

B14: the binding signal came out at 0.967 enrichment R.

Molecule B15 had a binding signal of 1.29 enrichment R.

B16 returned a binding signal of 1.19 enrichment R.

With B17, the binding signal was 0.976 enrichment R.

B18 registered a binding signal of 1.8 enrichment R.

For the molecule B19, the binding signal was 0.432 enrichment R.

With B20, the binding signal was 0.979 enrichment R.

In turn, B21 yielded a binding signal of 0.819 enrichment R.

Consider B22, for which the binding signal is 0.318 enrichment R.
